# In PMC6919601, “Identification of Plasmodium dipeptidyl aminopeptidase allosteric inhibitors by high throughput screening” (PLoS ONE, 2019):
# Values joined by “and” are separate entries in the source; they are usually repeats but may differ in a detail not shown here. Equal entries are not always repeated. Hit rate of the full screen: of about 110,000 compounds, about 230 (0.21%) showed an effect of 50% or more. This is one part of the list.
# Target: DPAP1 (Plasmodium falciparum, UniProt Q8IIJ9)
# Sequence (Q8IIJ9 whole entry, looked up): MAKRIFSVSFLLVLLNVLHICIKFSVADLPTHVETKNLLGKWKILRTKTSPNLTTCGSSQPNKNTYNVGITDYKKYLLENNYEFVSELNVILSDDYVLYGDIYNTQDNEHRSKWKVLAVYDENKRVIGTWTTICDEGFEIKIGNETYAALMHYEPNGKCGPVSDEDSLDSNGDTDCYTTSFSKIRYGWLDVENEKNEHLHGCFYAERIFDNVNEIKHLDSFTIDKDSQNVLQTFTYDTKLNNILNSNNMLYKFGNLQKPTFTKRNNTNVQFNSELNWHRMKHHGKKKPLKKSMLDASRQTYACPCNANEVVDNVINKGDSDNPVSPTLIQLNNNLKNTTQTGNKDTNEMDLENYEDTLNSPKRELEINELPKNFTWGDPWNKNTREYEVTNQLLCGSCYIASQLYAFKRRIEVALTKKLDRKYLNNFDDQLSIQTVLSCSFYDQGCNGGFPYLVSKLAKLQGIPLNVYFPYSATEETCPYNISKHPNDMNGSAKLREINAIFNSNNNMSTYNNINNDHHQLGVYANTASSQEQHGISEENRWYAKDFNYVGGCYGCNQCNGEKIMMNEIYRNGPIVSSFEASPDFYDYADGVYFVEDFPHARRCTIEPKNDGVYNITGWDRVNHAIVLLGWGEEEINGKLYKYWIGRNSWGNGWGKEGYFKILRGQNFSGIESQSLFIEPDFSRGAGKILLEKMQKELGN
# Experiment: primary screen, percent inhibition; read by cleavage of a fluorogenic dipeptide substrate; higher = more effect of the substance
# Design: species or system P. falciparum D10 trophozoite lysates; single well
# 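Note: 30 min substrate incubation versus DMSO and 10 µM JCP410 controls.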
row,SMILES,% Inhibition @ 10 uM
1,O=C(C1COc2cc(S(=O)(=O)NCc3ccco3)ccc2O1)N1CCCCC1 (stereo not shown),-3.04%
2,O=C(NCc1cn2ccsc2n1)c1c(F)cccc1Cl,-2.45%
3,Cc1ccc2c(CNCc3cccs3)c(C(=O)O)n(Cc3ccccc3F)c2c1,5.61%
4,C=Cc1ccc(Cn2c(C(=O)O)c(CNCCc3cccs3)c3ccc(C)cc32)cc1,0.713%
5,CC(CNC(=O)C1CCN(C(=O)c2cnn(-c3ccccc3)c2-n2cccc2)CC1)c1ccccc1 (stereo not shown),6.46%
6,CC(Cc1ccc(F)cc1)N1CCN(C)CC1 (stereo not shown),3.48%
7,CCOc1ccc(-c2nc(SCC(=O)Nc3nccs3)c(-c3ccc(F)cc3)[nH]2)cc1,1.85%
8,Clc1ccc(CN2CCN(c3ccccc3)CC2)cc1,6.18%
9,Cc1nnc2ccc(N3CCN(c4ccccn4)CC3)nn12,2.6%
10,CC(C)CCNC(=O)CNC(=S)N1CC2CC(C1)c1cccc(=O)n1C2 (stereo not shown),-2.26%
11,C[C@H](C[C@H](NC(=O)c1ccc(-c2ccccc2Cl)cc1)C(=O)NCC#N)c1ccccc1,2.87%
12,Cc1[nH]nc2c1C1(CCN(C(=O)c3ccccc3)CC1)C(C#N)=C(N)O2,-1.38%
13,COC(=O)c1cc2occc2n1Cc1nc(-c2cccc(C)c2)oc1C,-7.15%
14,Cc1ccc2ncc(NC(=O)NC3CCCCCC3)c(O)c2c1,43%
15,CC(NC(=O)c1ccccc1F)c1ccc2c(c1)OCCCO2 (stereo not shown),0.475%
16,Cc1ccc(-c2scc(C)c2C#N)cc1,-1.06%
17,Clc1ccc(OCCSc2nnnn2C2CCCCC2)cc1,-1.26%
18,CCC(C)/N=c1/c(-c2cc(C)c(C)cc2C)c(O)c1=O (stereo not shown),0.882%
19,CCOC(=O)N1CCN(CC2CC3C=CC2C3)CC1 (stereo not shown),0.472%
20,COc1ccc(/C=C2\N=C(c3cncc(Br)c3)OC2=O)c(OC)c1OC,-2.41%
21,COc1cc(C2C(C(=O)c3ccc4c(c3)CC(C)O4)=C(O)C(=O)N2Cc2ccco2)ccc1O (stereo not shown),2.53%
22,COc1cc(CN2CCOCC2)cc(OC)c1,-0.0494%
23,CCSC1=NSC2=NC(=O)/C(=C\c3ccc(C)o3)C(=N)N12,-2.12%
24,COc1cc(OC)c(OC)cc1CN1CCN(C(=O)c2ccccc2F)CC1,-15.2%
25,COC(=O)c1ccc(Oc2cc(C)nc(NCc3ccccc3)n2)cc1,-6.87%
26,C=CCOC(=O)C1=C(C)OC(N)=C(C#N)C1c1cccc2ccccc12 (stereo not shown),2.8%

row,SMILES,% Inhibition @ 10 uM
1,CCOc1ccc(CNC(=O)C(C)n2nc(C)c3c(C)n(-c4ccccc4)nc3c2=O)cc1 (stereo not shown),-0.665%
2,O=C(/C=C(/c1ccc(Cl)cc1)n1cncn1)c1ccccc1,-3.69%
3,O=C(CN1CC(c2ccccc2)CC1=O)NCCC1=CCCCC1 (stereo not shown),-3.41%
4,CCn1ncc(Br)c1C(=O)Nc1cccc(C(=O)O)c1,0.512%
5,CCCn1c(=O)c2c(nc3n2CCN3Cc2ccco2)n(C)c1=O,-1.98%
6,COc1ccccc1-c1c(C)nn2c(SCC(=O)N3CCOCC3)cc(C)nc12,-3.47%
7,CS(=O)(=O)c1ccc2nc(NC(=O)Nc3ccc(Cl)c(Cl)c3)sc2c1,2.38%
8,CCC(=O)/N=c1/n(C)c2ccccc2n1CCOc1ccccc1,0.512%
9,CCO/C(O)=C1/C(C)=Nc2ncnn2C1c1cccnc1 (stereo not shown),-1.62%
10,CCOc1ccc(NC2OC(CO)C(O)C(O)C2O)c([N+](=O)[O-])c1 (stereo not shown),-0.216%
11,Cc1ccc2cc3cc(C(=O)N4CCN(C(=O)c5ccco5)CC4)oc3nc2c1,-1.54%
12,COc1cccc(CNCCc2cccc(Cl)c2)c1OC,-3.75%
13,Cc1c(/N=C(\S)NCCO)c(=O)n(-c2ccccc2)n1C,-6.22%
14,Cc1nn(CCCC(=O)N2CCc3ccccc3C2)c(=O)c2c1sc1ccccc12,-4.09%
15,COc1ccc(OC)c(C2CC(c3ccc(C)cc3)Nc3ncnn32)c1 (stereo not shown),-7.08%
16,CNC(=O)c1ccc2nc(N3CCC(C)CC3)sc2c1,1.03%
17,CCOC(=O)N1CCN(C(=O)C2CCN(c3nnc(-n4cccc4)s3)CC2)CC1,2.56%
18,O=C(CCc1ccccc1)Nc1ccc(S(=O)(=O)Nc2nccs2)cc1,0.408%
19,COc1cc(C(=O)Nc2nnc(Cc3ccccc3)s2)cc(OC)c1OC,2.92%
20,COCCNC(=O)CCC(=O)n1ncc2ccccc21,-2.85%
21,CCC(C)c1ccc(NC(=O)c2cccs2)cc1 (stereo not shown),0.247%
22,Cc1ccccc1-c1nc(CSCC(=O)NC2CCCCCC2)c(C)o1,8.55%
23,O=C1CCn2nc(-c3ccccc3)cc2N1,-1.03%
24,N=C1SC2CS(=O)(=O)CC2N1Cc1ccccc1 (stereo not shown),0.558%
25,Cc1cc(C)c2c(-n3cccc3)c(C(=O)NCc3ccccn3)sc2n1,3.87%
26,O=C(CN1C(=O)C2CC=C(Cl)CC2C1=O)N1CCCC1 (stereo not shown),2.16%

row,SMILES,% Inhibition @ 10 uM
1,Brc1ccc(-c2noc(-c3cccs3)n2)cc1,-1.74%
2,Nc1sc2c(c1C(=O)Nc1ccc(Cl)cc1)CCCCC2,-1.28%
3,COc1ccc2ncc(S(=O)(=O)c3ccc(Cl)cc3)c(N3CCCCC3)c2c1,-4.34%
4,Cc1oc2cc3oc(=O)c(CCC(=O)O)c(C)c3cc2c1C,2.01%
5,COc1ccccc1CNc1nc2nc(C)c(C)c(O)n2n1,-0.671%
6,Cc1nnc(N2CCCC(C(=O)NCCc3ccccc3)C2)c2nn(-c3ccc(Cl)cc3)c(C)c12 (stereo not shown),1.74%
7,Cn1c(=O)c2c(nc(NCc3cccnc3)n2Cc2cccc(C(F)(F)F)c2)n(C)c1=O,1.9%
8,O=[N+]([O-])c1ccccc1S(=O)(=O)N1CCC(Cc2ccccc2)CC1,-0.712%
9,Cc1nn(CC(=O)NC2CCCC(C)C2C)c(=O)c2cc3cc(F)ccc3n12 (stereo not shown),-5.32%
10,COc1ccc(C(=O)N2CCN(C3CCCC3)CC2)cc1,3.17%
11,N#Cc1c(N/C=C2/C(=O)NC(=O)N(c3ccccc3)C2=O)sc2c1CCCC2,-4.41%
12,COc1ccc(S(=O)(=O)Nc2cc(C(F)(F)F)ccc2Cl)cc1,-1.22%
13,Cc1ccc2[nH]c(SCC(=O)Nc3ccc4c(c3)OCO4)nc2c1C,4.09% and -5.6%
14,CCc1cccc(C)c1NC(=O)CN(c1ccc(Cl)cc1)S(C)(=O)=O,-10.2%
15,CCOc1ccc(C2C(C#N)=C(N)N(c3cccc(C)c3)C3=C2C(=O)CCC3)cc1 (stereo not shown),-2.07%
16,CC(=O)Nc1ccc(C(=O)Nc2ccc(F)cc2)cc1,-3.13%
17,OCC1CCCN(C2CCCCCC2)C1 (stereo not shown),-0.0908%
18,Cc1ccc(OCC(O)CN2CCN(Cc3ccc4c(c3)OCO4)CC2)cc1C (stereo not shown),-4.65%
19,C=CCOC(=O)c1c2c(n3cc4ccccc4cc13)C(=O)c1ccccc1C2=O,3.87%
20,CCC(CO)NCC#Cc1ccccc1 (stereo not shown),-6.92%
21,COc1ccc(CCNC(=O)CSC2=NS(=O)(=O)c3ccccc32)cc1OC,-12.1%
22,OC(CNCc1ccco1)c1ccccc1 (stereo not shown),-6.74%
23,C=CCn1c2ccccc2n2c(C(C)=O)c(-c3ccccc3)nc12,-2.91%
24,CCCCNC(=O)CCCn1c(=O)c2cccn2c2cccnc21,2.57%
25,CC(CC1NCCC2(O)CCCCC12)c1ccccc1 (stereo not shown),1.54%
26,NC(=O)Cn1ccn(Cc2ccc(Cl)cc2)c(=O)c1=O,-3.49%

row,SMILES,% Inhibition @ 10 uM
1,CCc1[nH]c2ccccc2c1C(C)c1cccnc1 (stereo not shown),-4.49%
2,c1ccc(-c2nnc(CN3CCN(C(c4ccccc4)c4ccccc4)CC3)o2)cc1,3.74%
3,Cc1ccccc1C1CC(c2ccc(Br)cc2)Nc2ncnn21 (stereo not shown),3.32%
4,Cc1ccc(-n2ncc(C(=O)NCCN3CCCC3)c2C2CCN(C(=O)OC(C)(C)C)CC2)c(C)c1,-3.47%
5,COc1ccc(N(CC(=O)Nc2ccccc2C)S(C)(=O)=O)cc1Cl,-3.25%
6,CCOc1ccc(-c2cc(C(=O)NCc3ccco3)[nH]n2)cc1,3.47%
7,COC(=O)c1cccc(Oc2nc(N3CCOCC3)nc(N3CCOCC3)n2)c1,-4.49%
8,C=C(C)CSC1=C(C#N)C(c2ccc(C)cc2)CC(=O)N1 (stereo not shown),0.121%
9,CCc1nn(C(CC)C(=O)NCC(C)c2ccccc2)c(=O)c2cc3occc3n12 (stereo not shown),-3.79%
10,CCN(CC)C(=O)c1c(-c2ccccc2)noc1C,-0.436%
11,COc1ccc(/C=C2/SC(N3CCCCCC3)=NC2=O)cc1OC,1.96%
12,O=C(NCCC1=CCCCC1)c1cncc(Br)c1,-5.26%
13,Cc1cccc(CN2CCN(C)CC2)c1,1.48%
14,COc1cccc(C2NCCc3[nH]cnc32)c1 (stereo not shown),6.96%
15,COC(=O)C(NC(=O)Nc1ccccc1)C(C)C (stereo not shown),5.2%
16,CCOc1ccc(C2C(C#N)=C(N)Oc3[nH]nc(C(C)(C)C)c32)cc1OCC (stereo not shown),-4.48%
17,Oc1cc(Cc2ccccc2)cnc1CN1CCOCC1,-3%
18,CCCCCC(C)NC(=O)c1ccc(Br)o1 (stereo not shown),5.69%
19,COc1ccc(-c2c(C(C)=O)c(C)nc3sc4c(=O)n(-c5ccc(C)cc5)cnc4c23)cc1,-10.7%
20,CC(C)c1ccc(NS(=O)(=O)c2ccc(Cl)cc2)cc1,-0.197%
21,O=C(O)CC(NC(=O)C(c1ccccc1)c1ccccc1)c1ccc(F)cc1 (stereo not shown),1.7%
22,CCOc1ccc(C(=O)Nc2ccc(CN3CCOCC3)cc2)cc1Br,2.17%
23,Cc1cccc2c1-c1sc(C(=O)O)cc1CO2,-0.631%
24,Cc1cccc(C)c1Nc1c(C)cc([N+](=O)[O-])cc1C,1.13%
25,CCCn1c2ccccc2c2cnn(CC(=O)N(Cc3ccco3)CC3CCCO3)c(=O)c21 (stereo not shown),5.27%
